Measurements taken from the supplement of paper PMC9174493.
The list shows a part of the results. Single values of this set are uncertain. Values with irradiation are relative to irradiated vehicle.

Assays:
A549-Dual [1] = experiment: NF-kB reporter (SEAP) activity, viability-corrected, relative to vehicle (fold change vs vehicle); higher = more activation of STING-IRF / NF-kB immune response reporter; details: 10 µM
A549-Dual [2] = experiment: ISRE reporter (Lucia luciferase) activity, viability-corrected, relative to vehicle (fold change vs vehicle); higher = more activation of STING-IRF / NF-kB immune response reporter; details: 10 µM
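Wherever NF-kB reporter (SEAP) activity, viability-corrected, relative to vehicle is given: viability correction based on the alamar blue assay, with concentrations leaving 10% survival or less dropped.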

| SMILES | NF-kB reporter (A549-Dual [1]; irradiation: 8 Gy/4 fr) | NF-kB reporter (A549-Dual [1]; irradiation: none) | ISRE reporter (A549-Dual [2]; irradiation: 8 Gy/4 fr) | ISRE reporter (A549-Dual [2]; irradiation: none) |
| --- | --- | --- | --- | --- |
| CCCc1nc(C(C)(C)O)c(C(=O)OCc2oc(=O)oc2C)n1Cc1ccc(-c2ccccc2-c2nn[nH]n2)cc1 [Olmesartan Medoxomil] | 0.655 | 1.01 | 0.688 | 0.9 |
| COc1ccc(-c2oc3cc(OC)c(OC)c(O)c3c(=O)c2OC)cc1O [Casticin] | 0.561 | 1.46 | 0.134 | 0.933 |
| Cl.NCC(=O)CCC(=O)O [5-Aminolevulinic acid HCl] | 1.18 | 1.16 | 1.03 | 1.16 |
| CC(N)C12CC3CC(CC(C3)C1)C2.Cl (stereo unspecified) [Rimantadine Hydrochloride] | 0.792 | 0.978 | 0.95 | 0.941 |
| CC(C)=CCC/C(C)=C/CC/C(C)=C/CC/C(C)=C/CC1=C(C)C(=O)c2ccccc2C1=O [Vitamin K2] | 0.672 | 0.726 | 0.656 | 0.549 |
| Cc1c(C(N)=O)cc([N+](=O)[O-])cc1[N+](=O)[O-] [Dinitolmide] | 0.888 | 1.16 | 0.93 | 0.952 |
| CCCCCCOC(=O)N=C(N)c1ccc(NCc2nc3cc(C(=O)N(CCC(=O)OCC)c4ccccn4)ccc3n2C)cc1 [Dabigatran Etexilate] | 0.726 | 0.961 | 0.832 | 0.93 |
| CC(=O)Nc1nnc(S(N)(=O)=O)s1 [Acetazolamide] | 0.694 | 1.37 | 0.656 | 0.756 |
| CCCCCCCCCCCCCCCCO [1-Hexadecanol] | 1.36 | 3.27 | 1.25 | 4.79 |
| O=C(O)c1ccncc1 [Isonicotinic acid] | 0.768 | 0.664 | 0.989 | 0.627 |
| Cl.Cl.Fc1ccc(C(c2ccc(F)cc2)N2CCN(C/C=C/c3ccccc3)CC2)cc1 [Flunarizine 2HCl] | 0.662 | 0.889 | 0.678 | 0.938 |
| Cc1ccc(C(=O)c2cc(O)c(O)c([N+](=O)[O-])c2)cc1 [Tolcapone] | 0.604 | 0.799 | 0.357 | 0.554 |
| Cc1ccc(C2OC(CO)C(O)C(O)C2O)cc1Cc1ccc(-c2ccc(F)cc2)s1.Cc1ccc(C2OC(CO)C(O)C(O)C2O)cc1Cc1ccc(-c2ccc(F)cc2)s1.O (stereo unspecified) [Canagliflozin hemihydrate] | 0.819 | 0.956 | 0.791 | 0.939 |
| O=C1NC(=O)C(c2ccccc2)(c2ccccc2)N1 [Phenytoin] | 1.33 | 1.11 | 1.11 | 0.93 |
| NCCCCC(NC(=O)C1CCCN1C(=O)C1CSSCC(N)C(=O)NC(Cc2ccc(O)cc2)C(=O)NC(Cc2ccccc2)C(=O)NC(CCC(N)=O)C(=O)NC(CC(N)=O)C(=O)N1)C(=O)NCC(N)=O (stereo unspecified) [Lypressin Acetate] | 1.31 | 0.646 | 1.47 | 0.729 |
| COC(=O)CCc1ccc(OCC(O)CNC(C)C)cc1.Cl (stereo unspecified) [Esmolol HCl] | 1.01 | 1.23 | 0.779 | 0.799 |
| COc1cc(C(=O)NCc2ccc(OCCN(C)C)cc2)cc(OC)c1OC.Cl [Tribenzagan Hydrochloride] | 0.973 | 0.826 | 0.956 | 0.476 |
| CCN(CC)CCNC(=O)c1cc(Cl)c(N)cc1OC.Cl [Metoclopramide HCl] | 0.812 | 1.1 | 0.831 | 1.02 |
| COc1cc([N]([Na])S(=O)(=O)c2ccc(N)cc2)nc(OC)n1 [SulfadiMethoxine sodium] | 0.877 | 0.848 | 0.84 | 0.743 |
| O=C(O)c1ccccc1C(=O)Nc1ccc(S(=O)(=O)Nc2nccs2)cc1 [Phthalylsulfathiazole] | 0.698 | 0.944 | 0.761 | 0.677 |
| COc1ccc(CN(CCN(C)C)c2ncccn2)cc1 [Thonzylamine] | 0.903 | 0.967 | 0.821 | 0.635 |
| CC(O)C1C(=O)N2C(C(=O)O)=C(SC3CNC(CNS(N)(=O)=O)C3)C(C)C12 (stereo unspecified) [Doripenem] | 0.948 | 0.833 | 1.02 | 0.735 |
| CCCC(=O)Nc1ccc(OCC(O)CNC(C)C)c(C(C)=O)c1.Cl (stereo unspecified) [Acebutolol HCl] | 0.871 | 1.04 | 0.757 | 0.951 |
| Br.NC(=O)C(c1ccccc1)(c1ccccc1)C1CCN(CCc2ccc3c(c2)CCO3)C1 (stereo unspecified) [Darifenacin HBr] | 1.06 | 0.833 | 1.26 | 1.73 |
| CCN(CC)CCOC(=O)c1ccc(N)cc1Cl.Cl [Chloroprocaine HCl] | 0.641 | 0.724 | 0.606 | 0.601 |
| Cc1ccc(S(=O)(=O)O)cc1.O [p-Toluenesulfonic acid monohydrate] | 1.13 | 0.899 | 1.04 | 0.7 |
| Oc1ccc(O)cc1 [Hydroquinone] | 1.38 | 0.858 | 1.38 | 0.713 |

| SMILES | NF-kB reporter (A549-Dual [1]; irradiation: 8 Gy/4 fr) | NF-kB reporter (A549-Dual [1]; irradiation: none) | ISRE reporter (A549-Dual [2]; irradiation: 8 Gy/4 fr) | ISRE reporter (A549-Dual [2]; irradiation: none) |
| --- | --- | --- | --- | --- |
| CN(CCOc1ccc(CC2SC(=O)NC2=O)cc1)c1ccccn1 (stereo unspecified) [Rosiglitazone] | 0.583 | 0.763 | 0.549 | 0.773 |
| COC(=O)C1=COC(OC2OC(CO)C(O)C(O)C2O)C2C1CC(O)C2C (stereo unspecified) [Loganin] | 0.752 | 0.599 | 0.66 | 0.49 |
| Cc1cccc(C)c1NC(=O)c1cc(S(N)(=O)=O)c(Cl)cc1O [Xipamide] | 0.835 | 0.846 | 1.05 | 0.764 |
| c1c[nH]cn1 [Imidazole] | 0.715 | 0.705 | 0.739 | 0.463 |
| C=CCc1ccc(O)c(-c2cc(CC=C)ccc2O)c1 [Magnolol] | 0.532 | 0.571 | 0.704 | 0.6 |
| COCCOC(=O)C1=C(C)NC(C)=C(C(=O)OC/C=C/c2ccccc2)C1c1cccc([N+](=O)[O-])c1 (stereo unspecified) [Cilnidipine] | 0.52 | 0.834 | 0.595 | 0.772 |
| O=C([O-])C(O)C(O)C(O)C(O)CO.[Na+] (stereo unspecified) [Sodium Gluconate] | 0.791 | 0.882 | 0.748 | 0.793 |
| CCCCCOc1ccccc1/C(=C\SC)n1ccnc1.Cl [Neticonazole Hydrochloride] | 0.282 | 0.488 | 0.099 | 0.279 |
| CCCCC(=O)OC1CCC2C3CCc4cc(O)ccc4C3CCC12C (stereo unspecified) [Estradiol valerate] | 0.881 | 1.08 | 0.6 | 1.02 |
| CCOC(=O)C1=C(C)NC(C)=C(C(=O)OCC)C1c1ccccc1/C=C/C(=O)OC(C)(C)C [Lacidipine] | 0.419 | 0.697 | 0.53 | 0.79 |
| CCC1(c2cnc[nH]2)Cc2ccccc2C1 [Atipamezole] | 0.792 | 0.98 | 0.507 | 0.468 |
| Nc1nc(/C(=C/CC(=O)O)C(=O)NC2C(=O)N3C(C(=O)O)=CCSC23)cs1.O.O (stereo unspecified) [Ceftibuten dihydrate] | 1.26 | 1.04 | 1.05 | 0.908 |
| O=C1CC(c2ccc(OC3OC(CO)C(O)C(O)C3O)cc2)Oc2cc(O)ccc21 (stereo unspecified) [Liquiritin] | 0.695 | 0.761 | 0.559 | 0.64 |
| COc1ccc(/C=C\c2cc(OC)c(OC)c(OC)c2)cc1O [Combretastatin A4] | 1.27 | 1.35 | 0.16 | 0.364 |
| CN(C)C1C(O)=C(C(N)=O)C(=O)C2(O)C(O)=C3C(=O)c4c(O)ccc(Cl)c4C(C)(O)C3CC12.Cl (stereo unspecified) [Chlortetracycline HCl] | 0.76 | 0.804 | 0.753 | 0.773 |
| CC(C)OC(=O)C(C)NP(=O)(OCC1OC(n2ccc(=O)[nH]c2=O)C(C)(F)C1O)Oc1ccccc1 (stereo unspecified) [Sofosbuvir (PSI-7977, GS-7977)] | 0.828 | 1.11 | 0.745 | 0.804 |
| NC(C(=O)O)C(O)c1ccc(O)c(O)c1 (stereo unspecified) [Droxidopa] | 1.18 | 0.834 | 1.24 | 0.703 |
| COc1ccc2[nH]c(S(=O)Cc3ncc(C)c(OC)c3C)nc2c1 (stereo unspecified) [Omeprazole] | 0.829 | 0.744 | 0.717 | 0.688 |
| Oc1cc(O)c2c(c1)OC(c1ccc(O)c(O)c1)C(O)C2 (single isomer, unassigned; (+)) [(+)-Catechin] | 1.06 | 0.763 | 0.949 | 0.525 |
| O=S(=O)([O-])CCCS(=O)(=O)[O-].[Na+].[Na+] [Eprodisate disodium] | 0.788 | 0.818 | 0.746 | 0.748 |
| CC(=O)NS(=O)(=O)c1ccc(N)cc1 [Sulfacetamide] | 0.846 | 0.837 | 0.853 | 0.645 |
| NS(=O)(=O)c1cc2c(cc1Cl)NC(C(Cl)Cl)NS2(=O)=O (stereo unspecified) [Trichlormethiazide] | 0.653 | 0.924 | 0.797 | 0.745 |
| CC1OC(OC2C(O)C(OCCc3ccc(O)c(O)c3)OC(COC3OC(CO)C(O)C(O)C3O)C2OC(=O)/C=C/c2ccc(O)c(O)c2)C(O)C(O)C1O (stereo unspecified) [Echinacoside] | 0.97 | 1.31 | 0.149 | 0.372 |
| CC1=C(C(=O)OCCN(Cc2ccccc2)c2ccccc2)C(c2cccc([N+](=O)[O-])c2)C(P2(=O)OCC(C)(C)CO2)=C(C)N1 (stereo unspecified) [Efonidipine] | 0.685 | 0.896 | 0.776 | 1.14 |
| OCC(O)C(O)CO (stereo unspecified) [Erythritol] | 0.501 | 0.576 | 0.583 | 0.528 |
| CC(=O)C1CCC2C3CCC4=CC(=O)CCC4(C)C3CCC12C (stereo unspecified) [Progesterone] | 0.453 | 0.777 | 0.247 | 0.443 |
| O=C(O)c1ccccc1 [Benzoic Acid] | 0.806 | 1.46 | 0.721 | 0.737 |
